Experimental data: paper PMC6919601, “Identification of Plasmodium dipeptidyl aminopeptidase allosteric inhibitors by high throughput screening” (PLoS ONE, 2019)
About 230 (0.21%) of roughly 110,000 compounds showed an effect of 50% or more. Some of the results follow.

Biological target: DPAP1 (Plasmodium falciparum, UniProt Q8IIJ9)
Assay: primary screen, percent inhibition; read by cleavage of a fluorogenic dipeptide substrate; higher = more effect of the substance
Parameters: species or system P. falciparum D10 trophozoite lysates; single well
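Further: 30 min substrate incubation versus DMSO and 10 µM JCP410 controls.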

Chain of DPAP1 (Q8IIJ9 whole entry, looked up): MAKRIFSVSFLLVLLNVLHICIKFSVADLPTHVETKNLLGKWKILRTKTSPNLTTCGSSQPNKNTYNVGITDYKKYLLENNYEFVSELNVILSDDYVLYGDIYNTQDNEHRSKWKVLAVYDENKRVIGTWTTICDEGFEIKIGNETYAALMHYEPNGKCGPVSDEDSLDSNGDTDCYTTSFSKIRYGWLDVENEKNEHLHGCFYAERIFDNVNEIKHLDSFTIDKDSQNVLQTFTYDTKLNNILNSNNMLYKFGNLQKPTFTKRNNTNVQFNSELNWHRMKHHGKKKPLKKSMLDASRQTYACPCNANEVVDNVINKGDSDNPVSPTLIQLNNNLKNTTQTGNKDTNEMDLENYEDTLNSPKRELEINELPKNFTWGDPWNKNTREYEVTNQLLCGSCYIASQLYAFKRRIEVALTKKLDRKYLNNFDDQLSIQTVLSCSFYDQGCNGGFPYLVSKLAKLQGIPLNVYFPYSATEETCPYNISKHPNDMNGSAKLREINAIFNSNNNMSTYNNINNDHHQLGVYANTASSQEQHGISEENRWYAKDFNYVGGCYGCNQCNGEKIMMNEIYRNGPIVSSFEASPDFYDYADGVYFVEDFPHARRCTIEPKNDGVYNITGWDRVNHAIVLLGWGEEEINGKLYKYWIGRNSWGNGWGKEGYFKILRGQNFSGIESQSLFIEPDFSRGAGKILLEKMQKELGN

| Structure (SMILES) | % Inhibition @ 10 uM [%] |
| --- | --- |
| O=C(c1ccc(F)cc1)N1CCC(Cc2ccccc2)CC1 | -3.44 |
| COc1ccc(-c2cc3nc(C)c(CCC(=O)N4CC(C)CC(C)C4)c(C)n3n2)c(OC)c1 (stereo not shown) | -0.685 |
| CC1(O)N(CCc2c[nH]c3ccccc23)C(=O)OC12CCCCC2 (stereo not shown) | -2.19 |
| CCCC(=O)C1CCN(Cc2ccccc2)CC1 | -5.23 |
| C=CCOc1ccc2c(OC)c3ccoc3nc2c1OC | -0.687 |
| COc1ccc(S(=O)(=O)N(CC(=O)N2CCc3ccccc3C2)c2cccc(Cl)c2)cc1 | -11 |
| COc1ccc(C2N[C@H](C(=O)O)CS2)cc1OC (stereo partly shown) | -1.59 |
| C=CCNC(=O)c1ccccc1NC(=O)CN(c1cccc(Cl)c1)S(C)(=O)=O | 6.01 |
| Cc1ccc(C(O)CSc2nccn2C)cc1 (stereo not shown) | 0.401 |
| O=C(CCN1C(=O)c2ccccc2S1(=O)=O)Nc1ccc(Cl)cc1 | -3.09 |
| COc1ccc(CCNCc2ccc(C)s2)cc1OC | 2.48 |
| COc1ccc(S(=O)(=O)N(CC(=O)Nc2ccc3c(c2)OCO3)c2ccc(Cl)cc2)cc1 | 2.95 |
| CC(C)c1ccc(NC(=O)CN(c2ccc(F)cc2)S(C)(=O)=O)cc1 | 0.324 |
| CCCCNC(=O)c1cc2ccccc2s1 | -2.36 |
| CCOC(=O)CSc1nnc(Nc2ccc(Cl)cc2)n1-c1ccc(Cl)cc1 | -0.736 |
| CCOc1ccccc1-c1nc(-c2ccc(C)nc2OC)no1 | -3.36 |
| CCOc1ccc(C2C3=C(O)CC(C)(C)CC3=Nc3ncnn32)cc1 (stereo not shown) | -0.828 |
| Cc1nnc(N2CCOCC2)c2c1nnn2Cc1ccccc1Cl | 3.27 |
| Cc1nn(Cc2cccc(C(=O)O)c2)c(C)c1Br | 3.8 |
| CCc1c(C)sc(NC(=O)Cc2ccc(Cl)cc2)c1C(N)=O | -1.89 |
| CC(C)N(Cc1nc(-c2ccccc2)no1)C(=O)CCC1CCCC1 | -4.03 |
| Cc1cc(C)c(C)c(S(=O)(=O)N2CCC(N3CCCCC3)CC2)c1C | -1.71 |

| Structure (SMILES) | % Inhibition @ 10 uM [%] |
| --- | --- |
| COc1ccc(N2CC(C(=O)NC(C)C)CC2=O)cc1 (stereo not shown) | 1.62 |
| CC(C)(C)C(/C=C\c1ccc(Cl)cc1Cl)n1nnnc1C1(Nc2ccccc2)CCCC1 (stereo not shown) | -5.38 |
| Cc1n[nH]c(C)c1CCCCCOc1ccccc1C(C)(C)C | -1.64 |
| C/C=C(\C)CN1CCC(C(N)=O)CC1 | -5.11 |
| CCOC(=O)C1=C(N)Oc2c(oc(CO)cc2=O)C1c1ccccc1C(F)(F)F (stereo not shown) | 3.39 |
| CCOc1ccc(CCNC(=O)C2CCCN(c3ncnc4onc(C)c34)C2)cc1 (stereo not shown) | -3 |
| COc1ccc(NC(=O)CN(c2cc(C)ccc2OC)S(C)(=O)=O)cc1Cl | -16 |
| Cc1ccc(S(=O)(=O)NC2CCC(C(=O)O)CC2)cc1 (stereo not shown) | -0.597 |
| CCCc1nc(N)nc2c1C(=O)CC(C)(C)C2 | 0.774 |
| Cc1cccc(NC(=O)c2cc(F)c(Cl)nc2Cl)c1C | 0.907 |
| CCCN(CCO)Cc1ccc(F)cc1F | 2.7 |
| Cc1cc(C(=O)O)c(NC(=O)c2ccccc2Br)s1 | -2.6 |
| O=S(=O)(NCCc1nnc2ccc(SCc3cccc(F)c3)nn12)c1ccccc1 | 2.75 |
| COc1ccc(-c2c(C)nn3c(N4CCC(C(=O)N5CCN(C)CC5)CC4)cc(C)nc23)cc1OC | -1.89 |
| CCO/C(O)=C1\C(C)=NC2=C(C(=O)CCC2)C1c1ccc(C)s1 (stereo not shown) | -3.14 |
| CN(CCCNS(=O)(=O)c1csc(C(N)=O)c1)Cc1ccccc1 | -6.19 |
| CC(C)CC(NC(=O)c1ccc(NC(=O)N2CCN(CCN3CCOCC3)CC2)cc1)C(=O)NCC#N (stereo not shown) | 5.05 |
| COc1ccc(C2Nn3c(nnc3-c3ccccc3)SC2C(=O)NCc2ccco2)cc1Cl (stereo not shown) | -3.76 |
| COc1ccc(/C=C/C(=O)c2c(O)ccc3c(C)cc(=O)oc23)cc1 | 0.238 |
| Cn1c(C(=O)N2CCCC(C(=O)N3CCN(Cc4ccc5c(c4)OCO5)CC3)C2)cc2sccc21 (stereo not shown) | -2.01 |
| CCCCN(Cc1ccccc1)Cc1ccc(-c2cccc(Cl)c2)o1 | -3.5 |
| CCOc1ccccc1C1C(C#N)=C(N)Oc2cc(C)oc(=O)c21 (stereo not shown) | -3.13 |

| Structure (SMILES) | % Inhibition @ 10 uM [%] |
| --- | --- |
| CC(C)NC(=O)CSc1cn(CC(=O)N2CCOCC2)c2ccccc12 | -2.84 |
| CCc1ccc(/C(O)=C/C=N/c2ccc(OC)cc2OC)cc1 | 2.46 |
| Cc1ccc(NC(=O)CN2C(=O)S/C(=C\c3cccn3C)C2=O)c(C)c1 | -10.8 |
| CN(C)S(=O)(=O)c1cc(C(=O)NCCOC23CC4CC(CC(C4)C2)C3)c(Cl)cc1Cl | 2.7 |
| CCOc1ccc(CCn2c3c(c(=O)[nH]c2=O)C(NC(C)=O)(C(F)(F)F)C(=O)N3)cc1OCC (stereo not shown) | -1.57 |
| CN(C)CCNC(=O)CN1C(=O)c2ccccc2Sc2ncccc21 | -3.86 |
| Cc1cc(NC(=O)CCCC(=O)O)no1 | 0.64 |
| O=C(CSCC(=O)c1ccccc1)Nc1ccc2ccccc2c1 | -4.4 |
| Cc1c(C(=O)NCCO)oc2cc3c(C)c(C(=O)NCCO)oc3cc12 | 2.99 |
| Cc1nn(C)cc1CN(C)C(=O)c1cc2n(n1)C(C(F)(F)F)CC(c1ccc3c(c1)OCO3)N2 (stereo not shown) | 10 |
| CCCC(C)NC(=O)c1ccc(N(C)C)cc1 (stereo not shown) | -6.62 |
| COc1ccc(/C=C/C(=O)Nc2ccc(N3CCOCC3)cc2)cc1 | 3 |
| CN(Cc1nc2ccccc2n1C)C(=O)c1ccc(Cl)cc1 | -0.671 |
| COc1ccc(OC)c(CN2CCN(Cc3ccc(OC)c(Br)c3)CC2)c1 | -0.622 |
| COc1ccc2c(c1)c1c(c(=O)n(Cc3ccccc3)c(=O)n1CC(N)=O)n2C | 6.16 |
| COC(=O)c1cnn2c(O)c(Cl)c(C)nc12 | -5.8 |
| COC(=O)c1nnn(-c2ccc(C)cc2)c1C(=O)OC | -1.58 |
| CCCNC(=O)c1ccc(CSc2nc3ccncc3n2Cc2ccc(F)cc2)cc1 | -2.37 |
| CO/C(O)=C1\C(C)=Nc2c(c(=O)n(C)c(=O)n2C)C1c1cccc(OCc2ccccc2)c1 (stereo not shown) | 0.147 |
| Cc1ccc(Cn2c(C)c3cnn(CC(=O)NC(C)CCc4ccccc4)c(=O)c3c2C)cc1 (stereo not shown) | -3.96 |
